Results as given in PMC11369174, “Proteome-scale characterisation of motif-based interactome rewiring by disease mutations” (Molecular Systems Biology, 2024).
Substitutions are numbered along the chain they refer to. No constants are given. Whether binding was seen depends on the method and setting. For part of these data: In cells and extracts the contact can be indirect. Some results given as binding are weak or reduced against the parent protein; the word gives no strength. For part of these data: Sequences can lack the tags named with a protein.

Amino acid sequences for entries named in this document (tags omitted). Residues count along the entry.
UniProt P00519, residues 61-121: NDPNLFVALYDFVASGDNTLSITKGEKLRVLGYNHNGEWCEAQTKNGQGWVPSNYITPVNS
UniProt O14936, residues 12-276: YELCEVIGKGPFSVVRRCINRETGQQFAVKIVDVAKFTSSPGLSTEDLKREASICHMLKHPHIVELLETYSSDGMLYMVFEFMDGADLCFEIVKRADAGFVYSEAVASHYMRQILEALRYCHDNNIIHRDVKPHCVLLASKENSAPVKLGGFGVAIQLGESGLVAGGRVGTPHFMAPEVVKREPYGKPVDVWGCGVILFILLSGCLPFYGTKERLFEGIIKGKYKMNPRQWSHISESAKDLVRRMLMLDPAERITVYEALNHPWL
UniProt Q92793, residues 587-666: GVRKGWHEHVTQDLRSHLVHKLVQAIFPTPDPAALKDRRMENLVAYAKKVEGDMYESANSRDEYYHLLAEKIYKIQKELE
UniProt A9QM74: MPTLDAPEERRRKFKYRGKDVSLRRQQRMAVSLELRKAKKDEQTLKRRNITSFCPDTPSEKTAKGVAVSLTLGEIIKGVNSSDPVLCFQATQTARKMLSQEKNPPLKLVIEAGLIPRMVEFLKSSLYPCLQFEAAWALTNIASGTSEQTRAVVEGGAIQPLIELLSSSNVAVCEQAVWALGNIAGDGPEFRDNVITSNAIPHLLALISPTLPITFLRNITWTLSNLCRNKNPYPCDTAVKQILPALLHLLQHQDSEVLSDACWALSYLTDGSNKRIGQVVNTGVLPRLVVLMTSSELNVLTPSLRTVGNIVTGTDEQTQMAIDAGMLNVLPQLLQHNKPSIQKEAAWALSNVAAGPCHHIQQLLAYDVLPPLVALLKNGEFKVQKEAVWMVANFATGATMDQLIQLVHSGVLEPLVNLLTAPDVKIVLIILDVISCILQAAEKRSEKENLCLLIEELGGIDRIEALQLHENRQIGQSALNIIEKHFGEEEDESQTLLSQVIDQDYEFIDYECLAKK
UniProt P52294: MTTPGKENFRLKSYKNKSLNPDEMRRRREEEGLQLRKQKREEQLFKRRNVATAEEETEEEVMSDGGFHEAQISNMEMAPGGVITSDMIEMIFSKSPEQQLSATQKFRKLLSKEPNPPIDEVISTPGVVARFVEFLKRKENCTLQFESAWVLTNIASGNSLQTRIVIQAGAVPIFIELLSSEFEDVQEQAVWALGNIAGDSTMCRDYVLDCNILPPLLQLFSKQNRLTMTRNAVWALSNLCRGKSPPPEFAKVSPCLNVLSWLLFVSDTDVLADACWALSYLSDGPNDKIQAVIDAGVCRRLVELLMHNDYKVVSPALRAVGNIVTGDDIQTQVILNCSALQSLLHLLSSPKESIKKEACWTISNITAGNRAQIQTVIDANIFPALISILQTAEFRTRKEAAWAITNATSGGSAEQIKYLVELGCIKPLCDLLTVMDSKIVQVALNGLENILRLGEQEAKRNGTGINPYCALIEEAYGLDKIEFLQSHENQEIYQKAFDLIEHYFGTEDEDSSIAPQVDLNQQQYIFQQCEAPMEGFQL
UniProt O00505: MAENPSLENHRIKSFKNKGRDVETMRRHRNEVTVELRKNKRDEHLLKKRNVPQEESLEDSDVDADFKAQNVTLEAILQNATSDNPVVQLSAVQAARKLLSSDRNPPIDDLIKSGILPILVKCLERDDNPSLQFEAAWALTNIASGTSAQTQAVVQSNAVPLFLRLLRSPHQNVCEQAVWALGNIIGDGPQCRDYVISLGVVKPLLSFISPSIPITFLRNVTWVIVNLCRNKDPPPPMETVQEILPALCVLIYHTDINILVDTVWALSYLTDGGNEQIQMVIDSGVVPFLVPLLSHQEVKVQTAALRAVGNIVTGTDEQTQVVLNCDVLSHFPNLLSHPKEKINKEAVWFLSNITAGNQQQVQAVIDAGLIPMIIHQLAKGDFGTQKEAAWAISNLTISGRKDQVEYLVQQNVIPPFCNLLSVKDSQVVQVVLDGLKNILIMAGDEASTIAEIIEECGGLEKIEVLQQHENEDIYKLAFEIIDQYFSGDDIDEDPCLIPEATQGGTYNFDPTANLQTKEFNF
UniProt O00629: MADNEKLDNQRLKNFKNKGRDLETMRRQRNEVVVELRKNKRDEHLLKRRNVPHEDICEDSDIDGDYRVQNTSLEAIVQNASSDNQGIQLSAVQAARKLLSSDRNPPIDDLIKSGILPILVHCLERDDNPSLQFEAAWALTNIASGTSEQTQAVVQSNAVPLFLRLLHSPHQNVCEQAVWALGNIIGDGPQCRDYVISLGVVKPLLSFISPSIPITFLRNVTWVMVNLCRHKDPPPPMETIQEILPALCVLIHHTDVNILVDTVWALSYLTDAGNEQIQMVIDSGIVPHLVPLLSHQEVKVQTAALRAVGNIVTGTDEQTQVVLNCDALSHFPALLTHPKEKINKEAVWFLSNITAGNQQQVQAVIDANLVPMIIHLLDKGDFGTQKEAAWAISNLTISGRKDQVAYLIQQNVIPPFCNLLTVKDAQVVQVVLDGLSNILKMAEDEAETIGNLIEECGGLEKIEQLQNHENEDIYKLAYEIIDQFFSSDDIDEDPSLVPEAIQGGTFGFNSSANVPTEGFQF

Assays:
3BP2 FITC-… peptide = target: T1, 3BP2 FITC-… peptide; assay: fluorescence polarisation; saturation experiment: dilution series of the protein domain added to 10 nM FITC-labelled peptide; 50 mM sodium phosphate buffer pH 7.4, 0.05% Tween (protein in 50 mM sodium phosphate, 1 mM DTT; for CASK kinase domain also 100 mM NaCl); technical triplets; both purified
T1 sequence (peptide, FITC-labelled (printed as FITC- before the sequence)): HPPAYPPPPVPT

PER2 FITC-… peptide = target: T2, PER2 FITC-… peptide; assay: as above
T2 sequence (peptide, FITC-labelled (printed as FITC- before the sequence)): LQDPIWLLMADA

TCF3 FITC-… peptide = target: T3, TCF3 FITC-… peptide; assay: as above
T3 sequence (peptide, FITC-labelled (printed as FITC- before the sequence)): DKELSDLLDFS

[1] = target: T4, EGFP-CDC45 wild-type (human) (UniProt O75419); assay: co-IP; GFP-Trap of EGFP-tagged bait from lysate of cells co-transfected with T7-KPN (HEK293T in Fig. 5F); lysis 45 min on ice; blot for T7
T4 sequence: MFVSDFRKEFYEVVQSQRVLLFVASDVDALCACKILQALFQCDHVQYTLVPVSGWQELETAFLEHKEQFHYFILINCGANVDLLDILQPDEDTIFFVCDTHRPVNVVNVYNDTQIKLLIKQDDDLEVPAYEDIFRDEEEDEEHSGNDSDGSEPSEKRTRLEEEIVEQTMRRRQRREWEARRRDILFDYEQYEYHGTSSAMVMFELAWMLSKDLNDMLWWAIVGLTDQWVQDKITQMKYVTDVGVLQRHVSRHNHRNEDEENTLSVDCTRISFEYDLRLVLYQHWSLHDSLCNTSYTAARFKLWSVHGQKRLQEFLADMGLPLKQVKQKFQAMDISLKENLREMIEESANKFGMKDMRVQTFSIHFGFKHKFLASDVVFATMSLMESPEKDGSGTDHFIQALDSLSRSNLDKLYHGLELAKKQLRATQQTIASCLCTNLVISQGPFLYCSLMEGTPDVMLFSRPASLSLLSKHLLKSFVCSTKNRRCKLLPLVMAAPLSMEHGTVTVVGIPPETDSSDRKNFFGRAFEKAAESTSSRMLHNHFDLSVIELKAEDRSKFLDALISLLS

EGFP-CDC45 R157C (human) = target: T5, EGFP-CDC45 R157C (human) (UniProt O75419); assay: as above
T5 sequence: T4 sequence with R157C

[2] = target: T6, EGFP-tagged wild-type CDC45 (Cell division control protein 45) (human) (UniProt O75419); assay: co-IP; GFP-Trap of EGFP-tagged wild-type ABRAXAS1 or CDC45 from lysates of co-transfected cells, blot for T7-tagged KPNA; lysis in 100 mM NaCl, 50 mM Tris pH 7.4, 0.05% NP-40, 45 min on ice; single repeat for the negative ones, three biological replicates for CDC45 with KPNA7
T6 sequence: T4 sequence

[3] = target: T7, EGFP-tagged wild-type ABRAXAS1 (BRCA1-A complex subunit Abraxas 1) (human) (UniProt Q6UWZ7); assay: as above
T7 sequence: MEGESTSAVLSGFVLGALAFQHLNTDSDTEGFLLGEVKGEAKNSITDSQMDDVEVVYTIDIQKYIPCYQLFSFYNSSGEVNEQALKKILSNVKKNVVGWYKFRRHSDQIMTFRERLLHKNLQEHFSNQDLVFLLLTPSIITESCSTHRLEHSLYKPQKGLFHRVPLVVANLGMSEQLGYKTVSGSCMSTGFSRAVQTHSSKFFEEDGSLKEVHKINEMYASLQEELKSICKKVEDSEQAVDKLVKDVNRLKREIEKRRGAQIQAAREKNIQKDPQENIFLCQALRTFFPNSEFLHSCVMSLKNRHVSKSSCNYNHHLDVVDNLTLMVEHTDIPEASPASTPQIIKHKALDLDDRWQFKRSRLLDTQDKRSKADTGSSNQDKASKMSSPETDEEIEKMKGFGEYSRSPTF

ABL1 SH3 domain (from UniProt P00519 61-121) (domain or fragment)
binding (3BP2 FITC-… peptide): binds

CASK kinase domain (from UniProt O14936 12-276) (domain or fragment)
binding (PER2 FITC-… peptide): binds

CREBBP KIX domain (from UniProt Q92793 587-666) (domain or fragment)
binding (TCF3 FITC-… peptide): binds

T7-KPNA7 (from UniProt A9QM74 1-516)
binding [1]: binds | binding (EGFP-CDC45 R157C (human)): no binding

T7-tagged KPNA1 (from UniProt P52294 1-538)
binding [2]: no binding | binding [3]: no binding

T7-tagged KPNA3 (from UniProt O00505 1-521)
binding [2]: no binding | binding [3]: no binding

T7-tagged KPNA4 (importin subunit alpha-3) (from UniProt O00629 1-521)
binding [2]: no binding | binding [3]: no binding

T7-tagged KPNA6 (from UniProt O60684 1-536)
binding [2]: no binding | binding [3]: no binding

T7-tagged KPNA7 (importin subunit alpha-8) (from UniProt A9QM74 1-516)
binding [2]: binds | binding [3]: no binding
